Laboratory results published in article PMC4336329 (PLoS ONE, 2015).
The whole screen tested about 310,000 compounds, of which about 2,200 (0.71%) showed an effect of 50% or more. Effects have a minus sign here. This is one part of the list.

What follows are compounds tested against human ether-à-go-go-related gene (hERG) potassium channel (human, UniProt Q12809) (assay: primary screen, population patch clamp on CHO cells stably expressing hERG).
Chain of human ether-à-go-go-related gene (hERG) potassium channel (Q12809 whole entry, looked up): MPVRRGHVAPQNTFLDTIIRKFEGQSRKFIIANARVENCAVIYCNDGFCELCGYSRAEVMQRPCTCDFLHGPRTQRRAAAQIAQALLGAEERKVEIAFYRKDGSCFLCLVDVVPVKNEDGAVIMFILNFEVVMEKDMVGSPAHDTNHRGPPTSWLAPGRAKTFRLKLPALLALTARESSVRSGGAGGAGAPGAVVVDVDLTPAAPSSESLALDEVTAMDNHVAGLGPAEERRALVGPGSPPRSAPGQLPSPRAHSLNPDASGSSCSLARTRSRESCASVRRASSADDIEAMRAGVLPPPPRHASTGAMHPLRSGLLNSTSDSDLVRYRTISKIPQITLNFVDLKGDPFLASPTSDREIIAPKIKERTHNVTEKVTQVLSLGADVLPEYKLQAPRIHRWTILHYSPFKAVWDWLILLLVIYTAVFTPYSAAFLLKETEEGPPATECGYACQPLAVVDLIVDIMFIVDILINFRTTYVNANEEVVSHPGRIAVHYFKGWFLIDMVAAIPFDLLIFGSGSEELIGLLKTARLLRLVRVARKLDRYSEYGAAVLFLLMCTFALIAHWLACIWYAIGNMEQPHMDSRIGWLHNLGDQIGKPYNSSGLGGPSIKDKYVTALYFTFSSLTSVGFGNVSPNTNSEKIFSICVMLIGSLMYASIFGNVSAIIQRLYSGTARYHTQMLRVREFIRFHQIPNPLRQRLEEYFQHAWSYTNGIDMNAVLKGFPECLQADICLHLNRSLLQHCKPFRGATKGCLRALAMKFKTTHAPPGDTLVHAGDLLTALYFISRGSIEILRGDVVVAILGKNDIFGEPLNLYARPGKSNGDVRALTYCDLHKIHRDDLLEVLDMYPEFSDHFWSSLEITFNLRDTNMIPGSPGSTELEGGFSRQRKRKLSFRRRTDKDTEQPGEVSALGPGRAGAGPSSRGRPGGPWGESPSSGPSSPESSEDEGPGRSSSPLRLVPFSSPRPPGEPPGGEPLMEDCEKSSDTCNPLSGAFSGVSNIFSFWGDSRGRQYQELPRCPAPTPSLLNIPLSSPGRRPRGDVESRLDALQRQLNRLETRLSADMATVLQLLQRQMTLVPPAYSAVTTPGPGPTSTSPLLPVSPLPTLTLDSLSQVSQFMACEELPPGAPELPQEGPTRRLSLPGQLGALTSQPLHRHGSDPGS

Row | SMILES | hERG current change (%, negative = inhibition) at 1uM [%]
1 | Cc1nc2sc(C(c3cccc(F)c3)N3CCN(C(=O)c4ccco4)CC3)c(O)n2n1 (stereo not shown) | -11.4
2 | O=C(COC(=O)CNC(=O)c1cccs1)Nc1ccc(C(F)(F)F)cc1[N+](=O)[O-] | 4.66
3 | COc1ccc(Cl)cc1S(=O)(=O)n1nnc2ccccc21 | 6.61
4 | O=C(CN1C(=O)/C(=C/c2ccccc2F)Sc2ccccc21)NCC1CCCO1 (stereo not shown) | 4.24
5 | CCOc1ccc(N(Cc2cc3cc(C)ccc3[nH]c2=O)S(=O)(=O)c2ccccc2)cc1 | 15.8
6 | O=C1CCC(=O)N1c1cccc(-c2nc3ccccc3o2)c1 | 11.2
7 | CCOc1cc(C(=O)Nc2cc(C)on2)cc(OCC)c1OCC | 15.7
8 | CN(C)C(=O)COC(=O)c1ccccc1Sc1ccccc1C#N | 0.396
9 | O=C(Nc1ccccc1N1CCCC1)c1ccc([N+](=O)[O-])cc1Cl | 11.9
10 | Cc1csc(SCC(=O)NC(C)c2ccccc2)n1 (stereo not shown) | 7.43
11 | Cc1nn(Cc2ccccc2Cl)c2sc(C(=O)Nc3nccs3)cc12 | 7.9
12 | CS(=O)(=O)N(CC(=O)NCCSCc1ccccc1)c1ccccc1Br | 17.3
13 | CCCC(C)NNC(=O)c1cc2ccccc2[nH]1 (stereo not shown) | 10.8
14 | CC1(C)CC(NC(=O)c2ccccc2)CC(C)(C)N1 | 13
15 | CCOc1ccc2nc(/N=C/c3c(C)[nH]n(-c4ccccc4)c3=O)sc2c1 | 16.1
16 | Clc1ccc(Cn2c(/C=C/c3ccco3)nc3ccccc32)cc1 | 11.3
17 | O=C(NNS(=O)(=O)c1ccc(CCCl)cc1)C(O)(c1ccccc1)c1ccccc1 | -6.5
18 | CC(=O)N/N=C(\C)CC(=O)Nc1ccc2c(c1)OCCO2 | 9.75
19 | Cc1ccc(-n2c(SCC(=O)OC(C)C)nnc2-c2ccccn2)cc1 | 3.08
20 | COc1ccc(NC(=O)CSc2ncnc3c2cnn3Cc2ccccc2)cc1 | 13.8
21 | CCN(CC)C(=O)Cn1ncc2c1-c1ccccc1OC2 | 1.51
22 | CCCCCNc1nc2sc3c(c2c(=O)n1-c1cccc(Cl)c1)CCN(C)C3 | 2.06

Row | SMILES | hERG current change (%, negative = inhibition) at 1uM [%]
23 | Cc1ccsc1C(=O)N1CCN(C(=O)c2ccco2)CC1 | 2.43
24 | O=C(CCCSc1nc2ccccc2[nH]1)Nc1nnc(-c2ccccc2)o1 | 3.61
25 | Cc1ccc(SCc2c(C#N)c3ccccc3n2C)cc1 | 6.41
26 | C=CCN1C(=O)C(CC(=O)NCC)SC1=Nc1ccccc1CC (stereo not shown) | 11.7
27 | CCCn1c(/C=C/c2ccccc2)nc2ccccc21 | -13.6
28 | COc1ccc(C(=O)NC(C)CCc2ccccc2)cc1 (stereo not shown) | 9.15
29 | Cc1ccc(C(=O)NCCNC(=O)COc2ccc(C)c(C)c2)cn1 | 8.16
30 | CCOC(=O)Nc1ccc2c(c1)N(C(=O)CCN1CCOCC1)c1ccccc1S2=O.Cl (stereo not shown) | -3.88
31 | CN1CCN(CCCCOc2ccccc2C=O)CC1.O=C(O)C(=O)O | -3.34
32 | COc1ccc(C(=O)NNC(=S)NC(=O)c2ccccc2)cc1 | 14.2
33 | N#Cc1cnn2cc(-c3ncc(C(F)(F)F)cc3Cl)cnc12 | -5.65
34 | Cc1cnc(C(=O)NCc2ccc(Cl)cc2Cl)cn1 | 0.681
35 | CC(C)c1nc(SCC(=O)Nc2ccc3c(c2)OCO3)n[nH]1 | 22.5
36 | Cc1occc1C(=O)Nc1ccc(S(=O)(=O)N2CCCC2)cc1 | -8.3
37 | COC(=O)c1ccc2c(c1)NC(=O)C1CCCN21 (stereo not shown) | 1.94
38 | CC(C)CNS(=O)(=O)c1ccc(CCC(=O)NCc2ccncc2)cc1 | 18.9
39 | C/C(=N/NC(=O)c1cccc(C)c1)c1c(O)cc(C)oc1=O | 10.8
40 | O=C1[C@@H]2Cc3c([nH]c4ccccc34)C(c3cccc(Br)c3)N2C(=O)CN1C1CCN(Cc2ccccc2)CC1 (stereo partly shown) | 13.9
41 | COc1ccc(C(=O)COC(=O)c2ccc([N+](=O)[O-])s2)cc1OC | 2.42
42 | OC(CNc1ccccc1)COc1ccc(OCC(O)CNc2ccccc2)cc1 (stereo not shown) | -0.255
43 | O=C(NCCN1CCCCC1)c1cc(COc2c(F)cccc2F)on1 | -2.1
44 | CC(=O)Nc1ccc2nc(NC(=O)COc3ccc([N+](=O)[O-])cc3)sc2c1 | 2.89

Row | SMILES | hERG current change (%, negative = inhibition) at 1uM [%]
45 | O=C(Cn1nnc2ccccc21)OCc1ccccc1 | 10.3
46 | COc1ccc(OC)c(C(=O)NC(CC(N)=O)c2ccc(NCC3CC3)c([N+](=O)[O-])c2)c1 (stereo not shown) | -0.903
47 | Cc1cccc(OCC(=O)Nc2ccccc2N2CCCC2)c1C | 4.72
48 | Cc1ccc(NS(=O)(=O)c2cn(C)cn2)cc1 | 14.3
49 | Cc1cccc(C(=O)Nc2ncc(CN3CCOCC3)s2)c1 | 12.1
50 | CS(=O)(=O)Nc1cccc(C2=NN(S(C)(=O)=O)C(c3ccccc3)C2)c1 (stereo not shown) | 1.36
51 | Cc1[nH]c(C)c(C(=O)/C=C/c2ccc([N+](=O)[O-])cc2)c1C | 7.09
52 | O=C(O)CN=CC1=C(O)CC(c2ccccc2)CC1=O (stereo not shown) | 17.3
53 | CCN(C(=O)C1CCN(c2nc(-c3ccc(OC)cc3)no2)CC1)c1ccccc1 | -5.53
54 | COc1cc(C(=O)N2CCC(NC(=O)C(Cc3ccc(C)cc3)NC(C)=O)CC2)cc(OC)c1OC (stereo not shown) | 12.4
55 | Nc1nonc1C(=O)N/N=C/c1ccc(-c2cccc(C(=O)O)c2)o1 | 13
56 | COc1ccc(-c2ccc3nnc(SCC(N)=O)n3n2)cc1 | 16.8
57 | CCN(CC)CCN(C(=O)c1ccc(C(=O)c2ccccc2)cc1)c1nc2c(OC)cccc2s1.Cl | -33
58 | Cc1ccc(C(=O)NC(=S)N(C)C2CCCCC2)cc1Br | 8.35
59 | O=C(CN1C(=O)CCS(=O)(=O)c2ccccc21)NCc1ccccc1 | 4.2
60 | CC/C(=N\NC(=O)c1nnn(-c2nonc2N)c1-c1cccc(OC)c1)c1ccc(C)cc1 | 19.3
61 | CCOC(=O)[C@@H]1[C@H]2COc3ccc(Br)cc3[C@@H]2N2C(=O)N(c3cccc(F)c3)C(=O)[C@]12C | 8.87
62 | CCN(CC)CCn1c2c(c(SCC(=O)Nc3cccc4ccccc34)nc1=O)CCCC2 | -14.2
63 | Nc1nccnc1C(=O)OCC(=O)NCCc1ccc(Cl)cc1 | 0.206
64 | O=C(NCCCNC(=O)c1ccccc1F)c1ccco1 | 13.5
65 | COC(=O)c1c(O)c2ccccc2[nH]c1=O | -9.26
66 | O=C(COc1ccc(Cl)cc1Cl)Nc1ccccc1NS(=O)(=O)c1cccs1 | 13.4

Row | SMILES | hERG current change (%, negative = inhibition) at 1uM [%]
67 | Cc1c(-c2ccccc2)sc(Br)c1C(=O)N1CCOCC1 | 0.902
68 | CCOc1ccc(C2C(C(=O)c3ccc(C)o3)=C(O)C(=O)N2c2cc(C)on2)cc1OC (stereo not shown) | 11.4
69 | Cc1cc(C)cc(C(=O)NCC(=O)OCC(=O)c2cc(C)n(CC(F)(F)F)c2C)c1 | -23.1
70 | COc1ccc(C2CCCN2C(=S)Nc2cccc(C)c2C)cc1OC (stereo not shown) | 10.4
71 | CC(C)N(C)CCOC(=O)c1ccccc1Br.Cl | -0.153
72 | Cc1cc(C)cc(C(=O)Nc2nc3ccccc3[nH]2)c1 | 16
73 | CC1CCN(c2ccc(C(=O)OCC(=O)NCCN3C(=O)CSC3=O)cc2[N+](=O)[O-])CC1 | 3.11
74 | CCC(c1nnc(SCC(=O)N2CC(=O)Nc3ccccc32)n1Cc1ccccc1)N(C)C (stereo not shown) | -2.89
75 | Cc1ccc(N2NC(=O)/C(=C\c3cc4c(cc3[N+](=O)[O-])OCO4)C2=O)cc1C | 0.881
76 | O=[N+]([O-])c1cc2oc3c(c2c(C=NCc2ccccc2)c1O)CCCC3 | 14.4
77 | CCCCNC(=O)N1CCN(Cc2ccc(F)cc2)CC1 | 9.29
78 | COc1ccc(CC(=O)Nc2nc(-c3ccc(OC)c(OC)c3)cs2)cc1OC | 13.7
79 | CC1CN(S(=O)(=O)c2cccs2)CC(C)O1 (stereo not shown) | 0.555
80 | COc1ccc(S(=O)(=O)Nc2ccc(Nc3ccccc3)cc2)cc1 | 9.59
81 | O=C(NCCc1c[nH]c2ccccc12)C(=O)NCC1OCCCN1S(=O)(=O)c1ccccc1 (stereo not shown) | 6.83
82 | CC(C)(C)n1nc(Cc2cccc3ccccc23)c2c(N)ncnc21 | 15.8
83 | Cc1cc(C)c2oc(=O)cc(CN3CCC(C)CC3)c2c1 | 11.5
84 | O=C(O)c1ccc2c(c1)C(=O)N(CCc1ccccc1)C2=O | 14.3
85 | CN(C)c1cc[n+](CC(=O)Nc2ccc(OC(F)F)cc2)cc1.[Cl-] | 10.3
86 | O=C(NC1CCCC1)c1ccc(Br)s1 | -5.43
87 | CCOC(=O)CSc1nc2cc(OC)ccc2cc1C#N | 14.3
88 | Cc1ccccc1N1CCN(Cc2ccc([N+](=O)[O-])o2)CC1 | 12
